According to the supplement of paper PMC11417369:
The other results are listed elsewhere or left out.

What follows are sequences tested on PF3D7_0420300 AP2 domain 1 (GST-tagged) (assay: gcPBM binding intensity (ln(normalized median fluorescence intensity)); higher = stronger DNA binding).
Procedure, shortened: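 Binding intensity is defined as the maximum Masliner-normalised natural-log median intensity across replicate spots for either probe orientation. It was measured on an Agilent 4 × 180k array of primer-extended double-stranded 36-bp intergenic genomic probes and negative controls, to which GST-tagged P. falciparum DNA-binding domains made in E. coli were applied for 1 h in 1× PBS with 1% milk, 0.2 mg/ml BSA, 0.5% salmon testes DNA and 0.03% Triton X-100. Detection was by Alexa488 anti-GST antibody and scanning at 488 nm.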

Sequence | gcPBM binding intensity (ln)
ATTTTTTCTCATAAAAACGTGAACGTTTATTTTACA [CACACA_negctrl_site1041] | 9.11
TATAAATATCTGTATGCACACATTTTTTTTGGAAAA [CACACA_site4734] | 9.2
TCAACAAAATTGAAGGAACACACATACATATATATA [CACACA_site7940] | 9.65
AGCACATAAATAATTAAACACACATTGTTCTAGACA [CACACA_site8746] | 9.52
TTATACATATTTATATGTACGTAATATAATATTAAT [XGTACX_site6520] | 9.12
TTATAATTTTTCTATTGTACATTTAATAATATATAT [XGTACX_site7326] | 9.22
ATGAAGAAATAAATGTGTACATATCTTAGTATCATA [XGTACX_site8658] | 9.36
TATTTAATTTATACACGTACATATATAAATAATACA [XGTACX_site1148] | 9.21
TATAATGATGATGATAGTACGTATTAGTATAAAAAA [XGTACX_site9] | 9.33
TCATGGGTGTATTTCACACACGGATAATCATTTATA [CACACA_site4663] | 9.29
ATATTTTTTTTTGTTACACACGTTTTTTAAAAAATG [CACACA_site1603] | 9.6
TCATAAAAATAAAAATGTACACATTAGAAATATTGT [XGTACX_site3671] | 9.23
AGAAATAAAAAAAAAAATATATATATTATATATATA [CACACA_negctrl_site1799] | 8.87
GCAAGTCCATGAACGGTGCAGGAATTAACAAAAATA | 8.99
AATAAAAATAAAAGCACACATAAATATATATATATT [CACACA_site1441] | 9.7
TCATGGCCATTTTCAGTGCATATGTGTATTTAATAT [GTGCAC_site9529] | 9.35
AAAAAAATACATACGTGTACCCACATATATGTATCT [XGTACX_site5319] | 9.19
GTTTCTACTTATATAACAGGACACGTGTGAATAATT [TGCATGCA_negctrl_site430] | 9.42
ACAATTGCATCTATCACACATACATACATACATACA [CACACA_site5063] | 9.71
TTGAAGGTGGCAATGTGTACATAGAATAACCAGTGC [XGTACX_site4738] | 9.58
AAAAAAAAAAAACATTGTACGCACATTTTATATGTC [XGTACX_site6974] | 9.24
AATAGAGTTGAATGCACACATACAAATTTTTAGTTT [CACACA_site3564] | 9.33

Sequence | gcPBM binding intensity (ln)
TATATATATTTTATGTGTACTCAATGTTATAACGCA [XGTACX_site8360] | 9.09
TGCATAATTAAAAATGGTACACTGTATTTATAATAT [XGTACX_site1575] | 9.22
TATAAATTAAGATAACGTACATATAATAATATAAAC [XGTACX_site487] | 9.66
TGTACACCCAGAAATGCACACACATATATATATATA [CACACA_site8716] | 9.7
TGTACAGTATATACAACACACATTTGTATAAATATA [CACACA_site1002] | 9.52
ACAAAAAAAAAAAAAAAAAAAAAAAAAAAATAATAA [CACACA_negctrl_site1640] | 8.96
AAAATATATTAAGGCACACACATACATATTTATATA [CACACA_site7707] | 9.83
AGATCAATAATGACAAGTACACAAAATAACATTTAA [XGTACX_site6968] | 9.44
ATTTTGTAAAAGGTCATACACACATATTCAAAAGAA [CACACA_site2946] | 9.53
CGCACCCACAGACACACACACACATATATATATATA [CACACA_site2202] | 10.2
AATATATATTAAATATGTACTTATTTTTTGGTTGCT [XGTACX_site3613] | 9.39
AAAGAATAATTAAATACACACATATTACAGTAAAAA [CACACA_site2450] | 9.81
TACATACAGAAACACACACACACATATATATATATA [CACACA_site2919] | 10
AATATAAGCAAATACACACACACATATAAATATGTA [CACACA_site7741] | 10.2
TACATATATAAATATGTACACACATATGTATGATCT [CACACA_site9284] | 9.43
AAAAAAATAATATAAATAATGAAAAGATATAAATAA [GTGCAC_negctrl_site432] | 9.4
TTATTATATAAAGTTTCACACATTATTTGTTCAAAC [CACACA_site5218] | 9.13
ATATGAAGTATCGAATTAAGGGCAACAAATAAATTA [CACACA_negctrl_site1116] | 9.29
TTATATATGACTAACGGTTTTTTTTTTTTTTTTTTT [CACACA_negctrl_site576] | 9.17
ATTGAGAGAAAAAAATGTACTTGATCAAAATGGATA [XGTACX_site1649] | 9.22
TAATATCAATTTTTATGTACTTATATATATATATAT [XGTACX_site5879] | 9.31
AGTAGTCTGGAGAAGAGTACACAGTATCTGGTAACA [XGTACX_site2032] | 9.12

Sequence | gcPBM binding intensity (ln)
GTGTATATATGTTATACACACAAAAATATTTTGTAT [CACACA_site265] | 9.53
AAAAATCATATAGGTTGTACGGGTAGTTTATTTTAT [XGTACX_site6936] | 9.59
ATTTATTAACCATATACACACATATATTTGTATTTA [CACACA_site6744] | 9.69
ATAGTATCTGGTAGCTGTACGAGTCGTAGAGTGCAG [XGTACX_site2020] | 9.27
TTCCCTAATATTTGTTGTACTTGTTATATTTTTTTT [XGTACX_site5994] | 9.86
TATATTTGTAAGAAGAGTACTAAAAAAAGAATAAAG [XGTACX_site8704] | 9.34
ATATATATATATATATGTACGTACTCAGTTATGCCT [XGTACX_site453] | 9.32
TGTTCTTATTTTATAAGCATATAATTAATCATAATG [CACACA_negctrl_site1493] | 9.05
ATAAGAAAAGGACACACACACAAAAAAAAAAAAAAA [CACACA_site7351] | 9.84
ATGTATATAATATTATGTACATATATGAAATATTTT [XGTACX_site8168] | 9.15
TTTATTTATTATTGTTGTACACTTTTTATAAAAAAA [XGTACX_site5114] | 9.12
TAGTTTTTTATAAAATTATTTATATAAAGGTAAAAA [CACACA_negctrl_site490] | 8.7
AATATATTATAATATACACACATATATGCTCTTTAA [CACACA_site4131] | 9.49
ATTTAAAAGAAATAATGTACGAATCATATTTGATAT [XGTACX_site1785] | 9.19
ATATATTATATATATTTTAAGTAATTTGCAAAAAAT [GTGCAC_negctrl_site361] | 8.93
ATATATATATCACGCACACACGAATTTTAAATATAT [CACACA_site5691] | 9.64
TTATTTTTACAATTTTAATAATAATACTAAAACAAA [XGTACX_negctrl_site538] | 8.76
TATTGTATGGTAGGATATGATGTTATTTGTTATAAT [CACACA_negctrl_site202] | 9.45
TCTTTTGCCCAAAAAGGTACACACCACAATTTAAAT [XGTACX_site1482] | 9.29
ATACATATATATATATGTACATATGCACATATATAC [XGTACX_site7209] | 9.23
ATAATATATATATATACGCACACTTATGTACGGATT [CACACA_site2120] | 9.35
AACAATGTTTTCTTGTGTACACATCATTAAAGAAAA [XGTACX_site4726] | 9.1

Sequence | gcPBM binding intensity (ln)
TTCTATATAATTCAAACATGCACAGGAAATATTATA [TGCATGCA_site290] | 9.23
AAGAAAAAAGGGGACAAGGCATATCTATATATACAT [TGCATGCA_negctrl_site172] | 9.56
TATGTAACACATACTTGTACATATATAATTTTTTTA [XGTACX_site6251] | 9.22
TAAATATTTATAAACACACAAATATTTATATTTATA [CACACA_site6166] | 9.17
AAATAGAGAAATACAAGTACATATCAAACCAATCTA [XGTACX_site2756] | 9.52
AGGGACATATATATCACACACAAAAATTAGTCCCTT [CACACA_site2778] | 9.67
TTTATTTATTAATACACACACACACGCCCACAAAAT [CACACA_site6253] | 10.2
CTTATACATAAATTTTGTACACACAAAAAAAAAAAA [XGTACX_site2665] | 9.39
TAAAAATATAGGTATACACACATATAAATATAAATA [CACACA_site7785] | 9.64
GATTTTAAAATAATTACACACTTGATTATGTCCAAA [CACACA_site3491] | 9.31
ATAAATATAAATATATGTACATATATATATATATAT [XGTACX_site7433] | 9.16
TTAAATAATATTAGCCGTACAATTTAAAGATAATAA [XGTACX_site8503] | 9.13
GAAAGGGCAGGAACTATTAATACACTGATCGATAAG [CACACA_negctrl_site1458] | 9.22
AATTATAGCTGTATCTGTACGCATTTATTTATAGAC [XGTACX_site5959] | 9.27
TTTAATACTTTATATGCATGCAGAGAAAAATGCTTG [TGCATGCA_site286] | 8.91
AAAAAAAAGTATGATTCTAAATTTATGTATATATAA [GTGCAC_negctrl_site669] | 9
ATACATATAGGATGCACACATAATTCAAATACAATA [CACACA_site651] | 9.59
TTTGAAATATATTTAGTGCATATATATTGATTATAA [GTGCAC_site9604] | 8.99
ATGAATATAATGAAGTGTACATAAAAATAATAAATA [XGTACX_site2481] | 9.66
ATCTAGTACATACATACACACAACAATGTTATGAGA [CACACA_site3989] | 9.55
CAATTTTGCCCTTCCTGTACATATATTGAAAAATAT [XGTACX_site6388] | 9.2
TGTTTTGTTGTGTATTGTACTAATATAAATATATAA [XGTACX_site1852] | 9.3
